Test results from PubChem BioAssay AID488969 (Vanderbilt High Throughput Screening Facility, 2010).
Where “and” joins values, the source holds several entries; their conditions need not be identical. Identical values can stand only once. In all, about 110,000 compounds were measured (“z-score”: median about -0.1, highest 2% from about 2 on). This is one part of the list. Calls of active or inactive are those of the source.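 The calls were made as follows: active = z-score in the third read window above 3 or below -3; inactive = the rest.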

What follows are molecules tested against Metabotropic glutamate receptor 8 (Rattus norvegicus) (UniProt P70579) (assay: rat mGluR8 modulators via GIRK flux, primary screen, cell-based, thallium flux, HTS (AID 488969)). Details: HEK293 rat mGluR8, GIRK (G protein-gated inwardly rectifying potassium channel) thallium flux, FluoZin2; at 10 µM; stronger effect = higher value; submaximal glutamate (EC20) added with thallium.
Sequence of UniProt P70579 (P70579 whole entry, looked up): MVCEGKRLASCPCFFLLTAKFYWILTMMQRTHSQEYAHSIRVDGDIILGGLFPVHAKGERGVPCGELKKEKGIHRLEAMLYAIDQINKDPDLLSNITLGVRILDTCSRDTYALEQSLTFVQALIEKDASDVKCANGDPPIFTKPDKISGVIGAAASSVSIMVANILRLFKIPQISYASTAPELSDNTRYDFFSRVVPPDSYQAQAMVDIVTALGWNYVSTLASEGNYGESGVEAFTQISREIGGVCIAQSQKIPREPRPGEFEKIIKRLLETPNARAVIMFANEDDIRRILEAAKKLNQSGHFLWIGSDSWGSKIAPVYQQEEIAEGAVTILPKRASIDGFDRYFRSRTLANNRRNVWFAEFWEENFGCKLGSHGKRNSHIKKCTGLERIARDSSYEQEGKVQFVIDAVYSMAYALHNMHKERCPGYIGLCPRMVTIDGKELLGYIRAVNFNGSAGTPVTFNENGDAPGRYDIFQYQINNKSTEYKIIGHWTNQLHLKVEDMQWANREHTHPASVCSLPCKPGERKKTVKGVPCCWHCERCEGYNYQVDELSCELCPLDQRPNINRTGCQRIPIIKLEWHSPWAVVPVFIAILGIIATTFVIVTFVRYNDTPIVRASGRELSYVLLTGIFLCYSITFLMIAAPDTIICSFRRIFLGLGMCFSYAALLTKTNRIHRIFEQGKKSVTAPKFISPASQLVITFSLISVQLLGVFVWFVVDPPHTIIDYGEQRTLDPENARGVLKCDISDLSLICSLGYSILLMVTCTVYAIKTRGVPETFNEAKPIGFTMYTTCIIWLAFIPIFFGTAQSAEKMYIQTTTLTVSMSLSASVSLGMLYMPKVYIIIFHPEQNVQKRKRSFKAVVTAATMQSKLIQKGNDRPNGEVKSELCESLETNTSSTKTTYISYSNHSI

Structure (SMILES) | z-score
COc1cc(/C=C(\C#N)C(=O)Nc2cccc3ncccc23)cc(OC)c1OC | -0.528
COc1cc(C2C(C(=O)OC(C)C)=C(C)Nc3ncnn32)cc(OC)c1OC (stereo not given) | 0.269
O=C(O)c1cn(-c2ccccc2)nc1-c1ccncc1 | -0.201
CC(=O)/C(=N\Nc1ccccc1Cl)Sc1nnc(-c2ccccc2)n1-c1ccccc1 | -0.107
CCCNC(=O)c1ccc2nc(-c3ccccc3)c(-c3ccccc3)nc2c1 | -0.882
CC(C)[C@H](NC(=O)[C@@H]1CSCN1C(=O)OC(C)(C)C)C(=O)NCC1CCC(C(=O)O)CC1 (stereo not given in full) | 0.225
O=C(c1ccccc1S(=O)(=O)NCc1ccccc1)N1CCCCC1 | -0.382
O=C(Nc1nc(=O)c2ccccc2s1)c1ccc(Cl)cc1 | active: 14.9
CO/N=C/CC(=O)Nc1ccc(F)cc1F | 0.22
Cc1ccc(C(=O)Nc2cccc(C(=O)O)c2)cc1S(=O)(=O)N1CCOCC1 | -0.0683
COc1ccc2[nH]c3c(=O)n(CCCCC(=O)N4CCC(C(N)=O)CC4)c(=S)[nH]c3c2c1 | -0.391
N=C(N)SCc1nc2ccccc2c(=O)n1-c1ccccc1 | -0.0818 and -0.341
CCN1CCN(C(c2nnnn2Cc2ccc3c(c2)OCO3)C(C)C)CC1 (stereo not given) | 0.249
CCOC(=O)c1cnc2ccc(OC)cc2c1Nc1ccc2c(c1)OCCO2 | -0.741
O=C(N/N=C/c1cccs1)c1n[nH]c2c1CCC2 | -0.236
O=C1NC(=S)SC1=C1CCCC1 | 1.36
C=CCOC(=O)C1=C(C)NC(C)=C(C(=O)OCC=C)C1c1cccs1 | -0.714
Cn1cc(/C=N/NC(=O)c2cccc([N+](=O)[O-])c2)c2ccccc21 | -0.0885
O=S(=O)(Nc1ccc(-c2nc3cccnc3s2)cc1)c1cccs1 | -0.299
O=c1oc2cc(OCc3ccc(C(F)(F)F)cc3)ccc2cc1-c1ccccn1 | 0.417
CCOC(=O)c1c(-c2cccs2)csc1NC(=O)CNCCN1CCOCC1 | -0.205
O=c1oc2cc(O)ccc2cc1-c1ccc(F)cc1 | -0.21
COc1ccc(S(=O)(=O)N2CCCCCC2)cc1NC(=O)c1c2c(nc3ccccc13)CCN(Cc1ccccc1)C2 | -0.0637
Cc1ccc2cc(C#N)c(NCCNC(=O)C3CC3)nc2c1C | -0.424
O=C(O)CCC(=O)NCCn1c(-c2ccccc2)csc1=Nc1ccccc1 | -0.875
CCCc1[nH]c(=O)c(C#N)c2c1CCCC2 | -0.749
CC(=O)Nc1ccc(S(=O)(=O)Nc2cccc(-c3nc4ccccc4o3)c2)cc1 | -0.164
CCC(C)NC(=O)C1CCN(S(=O)(=O)c2cccc3cccnc23)CC1 (stereo not given) | -0.223

Structure (SMILES) | z-score
Cc1noc(/C=C/N(C)C)c1S(=O)(=O)N1CCCC(C(=O)NC2CCCCC2)C1 (stereo not given) | -0.19
O=c1[nH]c(Cc2cccs2)nc2ccccc12 | -0.42
COc1cccc(NC(=O)CC2COc3ccccc3O2)c1 (stereo not given) | active: 5.36
COc1cc(NC(=S)NC(=O)c2ccc(C)cc2C)ccc1NC(=O)c1cccs1 | 0.0737
CN1C(=O)COc2ccc(C(=O)c3oc4ccccc4c3-c3cnc4c(c3)COc3ccccc3-4)cc21 | -0.142
C=CCN1C(=O)C(Cc2ccc(F)cc2)S/C1=N/N=C/c1ccco1 (stereo not given) | -0.00476
Cc1ccsc1/C=C(/C#N)C(=O)NCc1ccccc1 | -0.161
O=C(NCc1ccncc1)C1CCCN(S(=O)(=O)Cc2ccccc2)C1 (stereo not given) | -0.193
Cc1ccc(C)c(-n2c(-c3csc(C)c3)n[nH]c2=S)c1 | -0.125
CCN1C(=O)C(CC(=O)Nc2cc(C)ccc2C)SC1=Nc1ccc(S(N)(=O)=O)cc1 (stereo not given) | -0.0644
O=c1[nH]ncc(N2CCN(C(c3ccccc3)c3ccccc3)CC2)c1Cl | 0.0469
COc1cc(OC)cc(-c2cc3nc(C)c(CCC(=O)NC(C)CCc4ccco4)c(C)n3n2)c1 (stereo not given) | -1.18
N=c1c2c(n(Cc3ccc(Cl)cc3)c3c1CCC3)CCC2 | -0.147
Cc1ccc(S(=O)(=O)N/N=C/c2ccc(OCC(=O)NC(C)C)cc2)cc1 | -0.144
CC1Cc2ccccc2N1C(=O)COC(=O)c1ccc(S(=O)(=O)N(C)C)cc1 (stereo not given) | -0.0173
Cc1ccc(NC(=O)c2ccc(Cn3cc([N+](=O)[O-])cn3)cc2)c(C)c1 | -0.473
COCc1cc(C)nc(N2CCOCC2)c1C#N | 0.183
O=S(=O)(Nc1ccncc1Cl)c1ccccc1 | 0.357
NC(=O)c1c(NC(=O)CSc2nnc(-c3ccccc3)n2CC2CCCO2)sc2c1CCC2 (stereo not given) | 0.722
Cc1ccc(N2C(=O)CC(N3CCN(C)CC3)C2=O)cc1 (stereo not given) | -0.215
CN1c2ccccc2N(C)C1c1ccc2c(c1)OCO2 | 0.441
O=C(Cc1ccccc1)Nc1ccc(NC(=O)c2ccco2)nc1 | -0.913
c1cc2nnnn2nc1N1CCCCCC1 | -0.0455
Cc1ccc(CNC(=O)CSc2nc3n[nH]c(C)c3c(=N)n2-c2cccc(C)c2)cc1 | -0.121
CCN1CCN(c2ccc(NC(=O)CCc3c(C)nc4c(-c5ccccc5)c(C)nn4c3C)cc2)CC1 | active: 3.06
CC(=O)c1cccc(NS(=O)(=O)c2ccc(N/C=C/C(=O)c3ccc(F)cc3)cc2)c1 | -0.174
Cc1ccc(S(=O)(=O)c2nc(S(C)(=O)=O)sc2N(C)C)cc1 | 0.113
